Molecular target: T1, EGFR which expressed on H292 cells (Homo sapiens, UniProt P00533)
T1 construct: H292 cells, which were human non-small cell lung cancer cells purchased from Procell, were capable of expressing EGFR and c-Met receptors; host or cells: H292 cells
Experiment: Blocking EGF-EGFR interaction on H292 cells (flow cytometry, Biotin-h.EGF)
Assay type: cell-based
Conditions: negative controls, FIG. 3
Experimental: H292 cells, which were human non-small cell lung cancer cells purchased from Procell, were capable of expressing EGFR and c-Met receptors. H292 cells were expanded to a suitable density, digested and detached from the cell culture flask, resuspended to 1×10^6 cells/ml, added to a 96-well flow plate, 100 μL per well, and centrifuged for later use. The antibody to be tested was subjected to 3-fold dilution with PBS, starting from 200 nM, and the diluted sample was added to the 96-well flow plate with cells, 100 μL/well, and incubated at 25° C. for 60 min. Biotin-h.EGF was diluted to 100 nM with PBS, added to the 96-well flow plate with cells, 100 μL/well, and incubated at 25° C. for 60 min. then washed twice with PBS. Streptavidin-FITC (purchased from Jackson) was diluted 100 times with PBS and added to the plate, 100 µL/well, incubated at 4° C. for 30 min, and washed twice with PBS. 100 μL/well of PBS was added to resuspend the cells, then the cells were detected on a CytoFlex (Beckman) flow cytometer, and the corresponding MFI was calculated.

B1: 136 single-arm antibody: single Fab antibody; heavy chain SEQ ID NO: 44 (LALA, knob), light chain SEQ ID NO: 12, Fc-LALA-hole (antibody)
heavy: EVQLQESGPGLVKPSETLSLTCTVSGGSVTSVNYYWKWIRQPPGKGLEWIGYISYSGNTNYNPSLKSRVTISVDTSKNQFSLKLSSVTAADTAVYYCVRAPYYYMDVWSKGTTVTVSSASTKGPSVFPLAPSSKSTSGGTAALGCLVKDYFPEPVTVSWNSGALTSGVHTFPAVLQSSGLYSLSSVVTVPSSSLGTQTYICNVNHKPSNTKVDKKV[skipping human IgG1 Fc with changes]
light: DIVMTQSPSSVSASVGDRVTITCRASQGISSWLAWYQQKPGKAPKLLIYAVSSLQSGVPSRFSGSGSGTDFTLTISSLQPEDFATYFCQQANSFPLTFGGGTKVEIKRTVAAPSVFIFPPSDEQLKSGTASVVCLLNNFYPREAKVQWKVDNALQSGNSQESVTEQDSKDSTYSLSSTLTLSKADYEKHKVYACEVTHQGLSSPVTKSFNRGEC
modifications: Fc-LALA-hole chain lacks entry
- blocking interaction between EGF and EGFR: could not block
